# Measurements from the supplement of paper PMC11417369.
# ± gives the standard deviation of the averaged measurements. The list shows a part of the results.
# Test system: PfAP2-G AP2 domain (GST-tagged)
# Experiment: gcPBM binding intensity (ln(normalized median fluorescence intensity)); higher = stronger DNA binding
# How it was run: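 Binding of GST-tagged P. falciparum DNA-binding domains, expressed in E. coli and used at about 25 μg on average, was carried out for 1 h in 1× PBS containing 1% milk, 0.2 mg/ml BSA, 0.5% salmon testes DNA and 0.03% Triton X-100. The target was an Agilent 4 × 180k array of primer-extended double-stranded 36-bp intergenic genomic probes plus negative controls, read with Alexa488 anti-GST antibody at 488 nm. Binding intensity is the highest Masliner-normalised natural-log median intensity across replicate spots of either probe orientation.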
row,Sequence,gcPBM binding intensity (ln)
1,TAAGTATACTCATACACACACACACTAGAAAAAAAA [CACACA_site4397],10.3 ± 0.31
2,AGAGATACATAAAAAAGTACATATAAAATTTAGGAA [XGTACX_site7201],11.4 ± 0.88
3,TGTGCTCAAAATTATGCACACACCTAAAATTAATTT [CACACA_site8950],10.2 ± 0.14
4,TACAAATTAATATGTACACACAAATATATATATATA [CACACA_site1977],11.4 ± 0.87
5,ATAATATGAAACTAAGGTACACATATATTAACAGAG [XGTACX_site3842],11.2 ± 0.79
6,TGCGACCATAATAAAGCACACAATGAAAAATATATA [CACACA_site256],10.4 ± 0.23
7,AAACCTACATAACATACACACGCATATATATAATTT [CACACA_site8923],10.09 ± 0.099
8,TATACATATTTTATAGCACACAAATAATAATATGTA [CACACA_site8129],9.95 ± 0.13
9,CCAACTATATTATGAAGTACATATATATTATATATA [XGTACX_site5767],11.2 ± 0.71
10,GTAAGTATATATAAATGTACTTATGAGGTCAAATTA [XGTACX_site3392],11.2 ± 0.71
11,TTGGGTATTTTGTGCGCACACACATGCAAAAAGAAA [CACACA_site8299],11 ± 0.6
12,ATATATATATATTGTAGTACTTATTAAATTATTTAT [XGTACX_site6235],11.4 ± 0.76
13,TCTGTATTTCCTTATGCATGCATTAGCAAGATAATA [TGCATGCA_site483],10.2 ± 0.26
14,TTTTTTTTTTTTTATTGTACATGCAAAAAATTCCAC [XGTACX_site2371],11 ± 0.82
15,TTATAATTATATACATGTACATATAATACATATATA [XGTACX_site8904],11 ± 0.6
16,AATATATGTATGTACGCATGTATGTATCTATGTATT [TGCATGCA_site389],11.5 ± 0.84
17,GTATAATTTTCGTATTCACACAAGAATATACTACAT [CACACA_site4877],10.3 ± 0.24
18,ATATGGGTAATGAATTGTACTCTTTCTTGTTGTTCT [XGTACX_site4487],11.3 ± 0.73
19,TGTAATAAATAGTACACACACACATATTTATATATC [CACACA_site6770],11.3 ± 0.83
20,GTTATATTTTTTTATACACACTGGAATATATAAATA [CACACA_site4282],10.1 ± 0.19
21,AGAAAAGTTTAATACAGTACATAAACAAAGTATAGG [XGTACX_site2386],10.9 ± 0.45
22,GTATATTTATAGCCTTTATTATATTTAATATTATTA [TGCATGCA_negctrl_site26],9.805 ± 0.049
23,TATAATATTATATATAAACACACATACACATGTAAA [CACACA_site8631],10.2 ± 0.14

row,Sequence,gcPBM binding intensity (ln)
1,TATATATAACTTTATTGTACAAAATATTATGTATTC [XGTACX_site981],10.8 ± 0.39
2,TTATATTATTTTTAATGTACTTTTTATGAATACAAA [XGTACX_site689],11.3 ± 0.88
3,TATACAACTTTATGAAGTACAAAAAGTTCTATATAT [XGTACX_site3866],11.1 ± 0.79
4,TTGTTTTATTATTCGATGCACTACAGAAATATATTC,10.3 ± 0.4
5,AACTATATCATTTATTTTATTTTTTAAATACATTTA [CACACA_negctrl_site183],9.71 ± 0.13
6,ATAATTATATATTTATGTACGCATAAATATTTATAT [XGTACX_site5765],11.5 ± 1.2
7,TATTTATTGTGATACTACTATTATTTTATGATTAAA [CACACA_negctrl_site284],10.5 ± 0.4
8,ACCCAATTTTAAAATGAACACACATGTTTTTCTTAC [CACACA_site8246],10.19 ± 0.021
9,AACATACATAGACACACACACACACGCACACGCACA [CACACA_site6373],10.3 ± 0.17
10,GAAAATACGTTTAATCGTACATATATATAATATATA [XGTACX_site4243],11.1 ± 0.88
11,TATTTACCCTCATGTTGTACTTTTCATTCATTTTAT [XGTACX_site7794],11.4 ± 0.75
12,ACAAGTTTTTTTTTATCACACACAAAAAAAAAAATA [CACACA_site8377],10.3 ± 0.41
13,ATTAATTATAATGTATGTACATAACTTTTTTATATT [XGTACX_site5784],11.2 ± 0.67
14,TTTATTATTTTTAGGAGTACACAAAATAAAACAAAT [XGTACX_site8841],11.6 ± 1
15,TATAAAAATGTGCACACACACACATATTTATATTTA [CACACA_site6826],10.4 ± 0.39
16,AACCTTTATATGTAAAGTACAAAAAAGAGTAAAAAA [XGTACX_site5506],11 ± 0.62
17,TCTATAAAGGAATATACACACATATATAAATATGTA [CACACA_site6332],9.85 ± 0.12
18,AAAAACAGAAATGTAACACACAAAAATTCTATTTAT [CACACA_site4026],9.86 ± 0.057
19,TTTTGTTATAAATAATGTACATATTTATTTAAAATT [XGTACX_site6610],11.2 ± 0.79
20,AAAATCATTCCAAAGACATGCATTTTGCAAATAAAA [TGCATGCA_site461],9.69 ± 0.071
21,TATATTATATACCATTGTACATATAATATAGGTTCT [XGTACX_site7047],10.8 ± 0.59
22,GAAACGATTTAATACACACACGTATTATAGATATAT [CACACA_site6666],10.12 ± 0.078
